This is one part of the list. Values were computed here from the reads of four pooled replicates and scatter widely.

The results in this text go back to the BET-seq Pho4 binding data (Le et al. 2018).

The target of the assay is T1, Pho4 (S. cerevisiae) (UniProt P07270).
T1 sequence: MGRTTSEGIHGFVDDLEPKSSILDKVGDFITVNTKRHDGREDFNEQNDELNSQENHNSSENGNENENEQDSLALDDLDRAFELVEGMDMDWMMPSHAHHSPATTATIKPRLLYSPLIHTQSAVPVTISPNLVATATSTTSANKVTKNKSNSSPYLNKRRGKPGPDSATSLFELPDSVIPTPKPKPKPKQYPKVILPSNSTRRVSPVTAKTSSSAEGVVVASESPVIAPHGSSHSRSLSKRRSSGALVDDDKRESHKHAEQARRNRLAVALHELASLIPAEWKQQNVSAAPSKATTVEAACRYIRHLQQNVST
As to the kind of experiment: relative binding free energy (BET-seq); higher = weaker binding. Conditions: reference: library average.
Consider GTGGGCACGTGACGAA, for which the “relative binding free energy” value amounted to 0.01 kcal/mol. Regarding ATAGTCACGTGAGATA, the “relative binding free energy” value stood at 0.26 kcal/mol.

For CGATGCACGTGGAGGT, the “relative binding free energy” value was -0.09 kcal/mol. For the sequence AATAACACGTGTTATT, the “relative binding free energy” value was -0.01 kcal/mol.

Take CTGTGCACGTGTAAGG: the “relative binding free energy” value was -0.03 kcal/mol. For GGATACACGTGTGAAG, the “relative binding free energy” value was determined as 0.25 kcal/mol. Take TAAATCACGTGGTCAT: the “relative binding free energy” value was determined as 0.18 kcal/mol. As to TTTGTCACGTGCGAGA, the “relative binding free energy” value came to 0.17 kcal/mol.

For the sequence ATTTTCACGTGCGTAT, the “relative binding free energy” value turned out to be 0.26 kcal/mol.

For the sequence AGTAGCACGTGGTCTT, the “relative binding free energy” value is -0.13 kcal/mol. As for CCGGGCACGTGCGGAG, the “relative binding free energy” value was -0.05 kcal/mol. In the case of TTTCACACGTGTTTTA, the “relative binding free energy” value worked out at 0.02 kcal/mol. For the sequence CAGCGCACGTGTGTGT, the “relative binding free energy” value was -0.21 kcal/mol.

For AGTGACACGTGGTCGA, the “relative binding free energy” value was -0.06 kcal/mol. AGATCCACGTGGTGTT: the “relative binding free energy” value was -0.08 kcal/mol.

In the case of GTCGTCACGTGGGCAG, the “relative binding free energy” value is -0.09 kcal/mol. As to AAGTACACGTGTAGGG, the “relative binding free energy” value amounted to 0.06 kcal/mol. Regarding CTGAACACGTGGGGGG, the “relative binding free energy” value was -0.14 kcal/mol. For the sequence TGTCGCACGTGAGGGA, the “relative binding free energy” value worked out at 0.29 kcal/mol.

Consider AGTAGCACGTGATTAT, for which the “relative binding free energy” value was 0.05 kcal/mol. Next, TGTCTCACGTGATGTA: 0.24 kcal/mol.

For GTTGACACGTGGACGG, the “relative binding free energy” value stood at 0.1 kcal/mol. For ATGTTCACGTGGATGC, the “relative binding free energy” value came to 0.26 kcal/mol. Then TAGGTCACGTGAGCAT, with 0.3 kcal/mol; and TGCGACACGTGGATTG, with 0.02 kcal/mol. Take GATAGCACGTGGGTAT: the “relative binding free energy” value is -0.11 kcal/mol. For the sequence TTTGTCACGTGTATCC, the “relative binding free energy” value is 0.1 kcal/mol.

For the sequence TGGGGCACGTGCGGCA, the “relative binding free energy” value is -0.26 kcal/mol. Then TGCATCACGTGTGGGT, with 0.02 kcal/mol; and TATGTCACGTGTGGGC, with 0.1 kcal/mol; and AGTTACACGTGTTCGG, with -0.02 kcal/mol. With TTCGTCACGTGTAGGC, the “relative binding free energy” value is -0.01 kcal/mol. Consider AGATGCACGTGTGTCT, for which the “relative binding free energy” value was -0.13 kcal/mol. In the case of GTTTTCACGTGGTTAG, the “relative binding free energy” value came to 0.38 kcal/mol. Next, GGTGGCACGTGAGAAC: 0.25 kcal/mol; TGGGACACGTGGGCCG: -0.07 kcal/mol. Take TGCTGCACGTGTGGCG: the “relative binding free energy” value worked out at 0.01 kcal/mol. Next, TGCTGCACGTGTTGTA: -0.01 kcal/mol. Regarding CGTGTCACGTGTCATG, the “relative binding free energy” value was -0.04 kcal/mol. Next, AGTCGCACGTGTAGTT: 0.08 kcal/mol; TTGAGCACGTGTAGGC: 0 kcal/mol; ATATACACGTGGGGGA: -0.06 kcal/mol. Turning to TAGTTCACGTGTTTCC, the “relative binding free energy” value was 0.39 kcal/mol.

Turning to GGTTCCACGTGGTGGG, the “relative binding free energy” value amounted to 0.08 kcal/mol. Next, ACTGACACGTGGTTGT: -0.05 kcal/mol. Then CAGGCCACGTGTTGGG, with 0.1 kcal/mol; and GTTAGCACGTGAAATA, with 0.22 kcal/mol. Then TTAGCCACGTGGCGGT, with -0.28 kcal/mol. Regarding AGTCTCACGTGGAGCG, the “relative binding free energy” value was 0.23 kcal/mol. With CTGCGCACGTGGGTGG, the “relative binding free energy” value is -0.26 kcal/mol. As to CTGTTCACGTGTGTGA, the “relative binding free energy” value turned out to be 0.26 kcal/mol. CGTGTCACGTGACGTA: the “relative binding free energy” value turned out to be 0.23 kcal/mol. Then TTGAACACGTGTTGGT, with 0.04 kcal/mol; and GGAGTCACGTGGGCCA, with 0.09 kcal/mol; and GGTCGCACGTGTGTAG, with 0.13 kcal/mol. As to CATGTCACGTGGAGTA, the “relative binding free energy” value was 0.04 kcal/mol. For the sequence GGCGGCACGTGATGAG, the “relative binding free energy” value is 0 kcal/mol. With AGTTCCACGTGGAGTA, the “relative binding free energy” value turned out to be 0.1 kcal/mol. Take TGGTTCACGTGTGCGC: the “relative binding free energy” value was found to be 0.26 kcal/mol. Next, GTGGACACGTGTCGAG: 0.15 kcal/mol; GTTAGCACGTGGAGTC: 0.15 kcal/mol; ATACGCACGTGTGAGT: -0.14 kcal/mol.

As for TGGTGCACGTGGGATC, the “relative binding free energy” value was -0.1 kcal/mol. Turning to TGTGTCACGTGAAAGG, the “relative binding free energy” value came out at 0.18 kcal/mol.

With TTGGTCACGTGTTGTT, the “relative binding free energy” value came to 0.19 kcal/mol.

Take CATTTCACGTGGGTCA: the “relative binding free energy” value was determined as 0.14 kcal/mol. Take GTGCACACGTGGGGGC: the “relative binding free energy” value was -0.12 kcal/mol. As to AGCGCCACGTGGGGTA, the “relative binding free energy” value is -0.22 kcal/mol. In the case of GGGGACACGTGTTTAT, the “relative binding free energy” value is 0.19 kcal/mol. As to GGTTTCACGTGAGTGC, the “relative binding free energy” value stood at 0.38 kcal/mol. With GTTTACACGTGTCGTT, the “relative binding free energy” value came to 0.06 kcal/mol. Take ATTTTCACGTGGCTCT: the “relative binding free energy” value is 0.19 kcal/mol.

Consider CCGCTCACGTGGGGGG, for which the “relative binding free energy” value was found to be 0 kcal/mol.

Regarding GGTTGCACGTGACGTG, the “relative binding free energy” value turned out to be 0.18 kcal/mol. Next, GTTTACACGTGGAGAT: 0.23 kcal/mol. Consider AAGGGCACGTGACGTA, for which the “relative binding free energy” value is -0.03 kcal/mol. In the case of CTATACACGTGGGGTA, the “relative binding free energy” value was -0.22 kcal/mol. Then TATGACACGTGAGAAG, with 0.22 kcal/mol; and TTTCGCACGTGGGAGT, with -0.19 kcal/mol; and TGTCACACGTGGCGGT, with -0.04 kcal/mol. Regarding GAATGCACGTGGGGCG, the “relative binding free energy” value is -0.13 kcal/mol. CATGACACGTGGTTTT: the “relative binding free energy” value worked out at 0.08 kcal/mol.

As to GAGGGCACGTGCGGGT, the “relative binding free energy” value is -0.12 kcal/mol. Then TTGAACACGTGTGGCT, with 0.1 kcal/mol. Next, TGACTCACGTGATTGG: 0.35 kcal/mol; TGCAGCACGTGGGAGC: -0.02 kcal/mol. Take GGTTTCACGTGCTTGC: the “relative binding free energy” value was 0.4 kcal/mol.

On to GTAGGCACGTGCATTT, for which the “relative binding free energy” value was -0.03 kcal/mol. On to AATGCCACGTGGGTGT, for which the “relative binding free energy” value was -0.24 kcal/mol.

For the sequence CAATTCACGTGGGGGA, the “relative binding free energy” value was found to be 0.12 kcal/mol.

Consider TAGGACACGTGGCTGT, for which the “relative binding free energy” value was -0.2 kcal/mol. For the sequence AGTGCCACGTGGTGTG, the “relative binding free energy” value was -0.24 kcal/mol. AGTGGCACGTGCTAAG: the “relative binding free energy” value is -0.24 kcal/mol. As for CTTCTCACGTGGGTGA, the “relative binding free energy” value is 0.23 kcal/mol. Next, CTGAACACGTGTTGGT: 0.15 kcal/mol; TCTGTCACGTGTGCTA: 0.15 kcal/mol.

For the sequence TATGTCACGTGAAATT, the “relative binding free energy” value came to 0.34 kcal/mol. Next, GTGTGCACGTGTGACT: 0.1 kcal/mol; TGTTGCACGTGTCTAT: -0.07 kcal/mol; GTCCGCACGTGTTTGT: 0.02 kcal/mol.

As to GTCGTCACGTGGGGAG, the “relative binding free energy” value was determined as 0.07 kcal/mol. Next, AGGGGCACGTGAGAGG: 0.11 kcal/mol; AGGGGCACGTGGTTTA: -0.14 kcal/mol. Next, TCGAGCACGTGGCGGT: -0.18 kcal/mol; GTAGTCACGTGGTTGG: 0.08 kcal/mol.

With CGTCTCACGTGGGAGG, the “relative binding free energy” value turned out to be 0.1 kcal/mol.

Take GTTTTCACGTGGCGGC: the “relative binding free energy” value amounted to 0.35 kcal/mol.

As for AGCGTCACGTGAGCGG, the “relative binding free energy” value amounted to 0.2 kcal/mol. Turning to TGTAACACGTGCGCGG, the “relative binding free energy” value is -0.14 kcal/mol. Then CTGGCCACGTGATGGG, with -0.03 kcal/mol; and GTTCACACGTGTTGAG, with 0.24 kcal/mol; and TGGCGCACGTGAATGG, with 0.07 kcal/mol.

For GTTGCCACGTGAGAGG, the “relative binding free energy” value is 0.13 kcal/mol. As to TAAATCACGTGGTAGT, the “relative binding free energy” value came out at 0.15 kcal/mol. On to GGGAGCACGTGAGAAG, for which the “relative binding free energy” value came out at 0.3 kcal/mol.
